Some of the results follow. Further columns of the screen follow, without active or inactive calls. Compounds called inactive in the main read-out are mostly missing here.
Assay: qHTS Assay for Lipid Storage Modulators (AID 1519)
Conditions: Drosophila S3 cells, BODIPY lipid droplet/cell ratio, laser cytometry; measured here: cell count channel max response; cells loaded with oleic acid
In short: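 Cells seeded at 5,000 per well were treated with compounds over a concentration series and loaded with oleic acid (400 uM, as added). Lipid droplet fluorescence (488 nm excitation, 500-530 nm channel) was read by laser-scanning cytometry and normalized to 20 uM Triacsin C.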

Compound | max response [%]
COc1ccccc1CNc1ccnc(-c2cccc(C#N)c2)n1 | 29.4
CCNc1ncc2nc(-c3ccc(OC)cc3)c(=O)n(CCc3ccccc3)c2n1 | 31.4
O=c1c(-c2ccccc2)nc2cnc(N3CCNCC3)nc2n1-c1ccccc1 | 33
O=c1c(CCc2ccccc2)nc2cnc(N3CCOCC3)nc2n1C1CC1 | 25.6
COCCn1c(=O)c(CCc2ccccc2)nc2cnc(Nc3ccccc3)nc21 | 0.111
COCCn1c(=O)c(-c2ccc(OC)cc2)nc2cnc(N3CCNCC3)nc21 | 32.4
CN(C)C(=O)c1ccc(-c2nccc(NCc3ccccc3)n2)cc1 | 9.72
COc1ccc2[nH]c(I)c(CCNC(C)=O)c2c1 | 99.5
O=C(O)c1c2ccccc2cc2ccccc12 | 66.9
CN1CCN(c2ncnc3ccc(-c4cccnc4)cc23)CC1 | 28.7
CS(=O)(=O)Nc1cccc(-c2nccc(NCc3cccs3)n2)c1 | 33.6
COc1ncc2nc(-c3cn(C)c4ccccc34)c(=O)n(-c3ccccc3)c2n1 | 36.6
COc1cccc(-c2cc(NCc3cccnc3)ncn2)c1 | 41.2
C[C@@H]1O[C@@H](OC[C@H]2O[C@@H](Oc3c(-c4cccc(O)c4O)oc4cc(O)cc(O)c4c3=O)[C@H](O)[C@@H](O)[C@@H]2O)[C@H](O)[C@H](O)[C@H]1O | -39.1
COCCn1c(=O)c(-c2ccc(F)cc2)nc2cnc(N(C)C)nc21 | 28.3
CO/N=C(\C(=O)N[C@@H]1C(=O)N2C(C(=O)O)=C(CSc3nc(=O)c(O)nn3C)CSC12)c1csc(N)n1 (some centres not stated) | 54.1
COc1cccc(Cn2c(=O)c(-c3cccs3)nc3cnc(OCc4ccccc4)nc32)c1 | 45
